For this series, the system named is ATP. Put plainly: switch fluorescence ratio, 500 uM ATP over buffer (Cy3 cluster intensity, sum of 5 cycles each) (fold (ratio)); higher = stronger signal-on switching upon ATP binding; sequences stand for … in TCGTCGGCAGCGTCAGATGTGTATAAGAGACAGTTTTTTTTTTTTTTTTTTTTTTTTT…TC. Particulars: aptamer strand: ATP DNA aptamer (quencher-CACCTGGGGGAGTATTGCGGAGGAAGG + anchor), 100 nM annealed; ATP concentration: 500 uM; one replicate. An outline of the steps: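 After annealing to 100 nM quencher-labelled ATP aptamer, Cy3-labelled switching-strand clusters on a modified Illumina MiSeq flow-cell were imaged in selection buffer. A second image followed after 15 min with 500 uM ATP at 22 °C, and five such buffer/ATP cycles were done, each separated by NaOH stripping and re-annealing. The fluorescence ratio, averaged per switch-domain sequence, is summed target-cycle over summed buffer-cycle Cy3 intensity per cluster, with clusters outside 100-1000 RFU excluded.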

Sequences with one replicate were seen in a single cluster, so their values are uncertain.
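Note: ATP exposure 15 min at 22 °C before imaging.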

For the sequence CATTACCTAG, the switch fluorescence ratio is 1.07.

Take CCGAGGGTAG: the switch fluorescence ratio amounted to 1.25.

Consider AACTAGGCGA, for which the switch fluorescence ratio came out at 1.06.

As for TTAGGCATCA, the switch fluorescence ratio was found to be 1.01.

With AGACTCAGTC, the switch fluorescence ratio came out at 1.01.

Regarding TCCCACAAC, the switch fluorescence ratio came to 1.11.

Regarding CCAGTCTACA, the switch fluorescence ratio turned out to be 1.06.

Consider ACTAGTCTGA, for which the switch fluorescence ratio was found to be 1.04.

GGGGTGTTTC: the switch fluorescence ratio was 0.963.

For the sequence CGGAGCGGT, the switch fluorescence ratio came out at 3.14.

Consider ATCCTAGAGG, for which the switch fluorescence ratio was determined as 1.01.

As to CCCTTATGTC, the switch fluorescence ratio came to 0.999.

As for GCGATCCACC, the switch fluorescence ratio is 1.11.

On to TTAAATCCCT, for which the switch fluorescence ratio worked out at 1.27.

TTCGCGATTG: the switch fluorescence ratio is 1.11.

Turning to CTATACGTCC, the switch fluorescence ratio came to 1.05.

With AAGGTTTTAG, the switch fluorescence ratio was determined as 1.01.

As to AAGGTATTTA, the switch fluorescence ratio came out at 0.969.

Consider GCAGGGGCGA, for which the switch fluorescence ratio was 1.13.

As for CGGTAACGA, the switch fluorescence ratio stood at 0.996.

On to AATAATGTT, for which the switch fluorescence ratio worked out at 1.03.

Regarding CAGATGACCG, the switch fluorescence ratio turned out to be 1.06.

For the sequence TGGAGTCCCG, the switch fluorescence ratio was determined as 0.966.

TCGATCACCG: the switch fluorescence ratio came to 0.991.

As to CCTCTAAGTG, the switch fluorescence ratio worked out at 1.42.

On to GTGCTTGCAG, for which the switch fluorescence ratio was 0.988.

Regarding TCATCAAGGT, the switch fluorescence ratio was found to be 1.01.

Take TGCGGATAGC: the switch fluorescence ratio was determined as 1.04.

Take ACAGAACAGG: the switch fluorescence ratio stood at 1.1.

As to CCGACCGGGT, the switch fluorescence ratio was 1.32.

Regarding CCTAGGTAGA, the switch fluorescence ratio was determined as 1.05.

TGTTATTAG: the switch fluorescence ratio is 0.972.

Regarding AAGGGGTTA, the switch fluorescence ratio was 1.

Regarding AAGCTGTACC, the switch fluorescence ratio stood at 1.17.

As to GCAAATTCA, the switch fluorescence ratio came to 1.06.

On to TTCATGGGTG, for which the switch fluorescence ratio was 1.03.

As for AGGAAAATCA, the switch fluorescence ratio was found to be 0.992.

Regarding GTGCAAATTC, the switch fluorescence ratio is 1.06.

Take TATAATTCCT: the switch fluorescence ratio amounted to 1.03.

For CGATAATTTC, the switch fluorescence ratio was 1.

On to TAACGAAAAT, for which the switch fluorescence ratio is 0.978.

For AACGAGGGGG, the switch fluorescence ratio worked out at 0.994.

ACCCCGATGC: the switch fluorescence ratio worked out at 2.81.

Take AATCTACTTA: the switch fluorescence ratio came to 1.01.

Regarding AATTGCACGT, the switch fluorescence ratio is 1.07.

Consider TACACGCCAA, for which the switch fluorescence ratio came out at 1.32.

Regarding TCTCGTCATT, the switch fluorescence ratio amounted to 1.03.

In the case of CCAAGTACTG, the switch fluorescence ratio is 1.41.

Regarding CCCCGAGGCA, the switch fluorescence ratio came out at 2.59.

For AAGACGTTT, the switch fluorescence ratio was 1.04.

In the case of GTCGTCGGCT, the switch fluorescence ratio worked out at 1.01.

For the sequence GGCGGCTGTG, the switch fluorescence ratio was found to be 0.963.

CAGTTGAAGA: the switch fluorescence ratio amounted to 0.995.

Take TGCCTCTGAC: the switch fluorescence ratio is 1.07.

AGAGATCGAC: the switch fluorescence ratio was 1.01.

With ACTGTTTCGA, the switch fluorescence ratio stood at 1.03.

As for TCCTCTTTCA, the switch fluorescence ratio turned out to be 1.04.

With CAATGCCTAC, the switch fluorescence ratio was determined as 1.13.

As to AGGGGAGTCC, the switch fluorescence ratio came to 0.992.

As to TCAGGCACGA, the switch fluorescence ratio was determined as 0.988.

Consider AGGCATTTTG, for which the switch fluorescence ratio was 0.948.

For the sequence AGAGATTGA, the switch fluorescence ratio is 1.03.

Regarding ATGCTCCTAA, the switch fluorescence ratio came to 1.05.

On to TCAGTACTCG, for which the switch fluorescence ratio is 1.07.

For CATATATGGC, the switch fluorescence ratio was found to be 0.951.

On to GGGCTAGATA, for which the switch fluorescence ratio amounted to 0.943.

For the sequence CAGCCCGTGA, the switch fluorescence ratio came to 1.07.

Values taken from the supplement of paper PMC10126150.
